In paper PMC5836133 one finds binding signal data, which are given here for 172 sequences.

The list shows a part of the results. At the low end of the ranking, values are background and their order means little.

The test concerns T1, GST-NbGlk1(82-244).
T1 sequence: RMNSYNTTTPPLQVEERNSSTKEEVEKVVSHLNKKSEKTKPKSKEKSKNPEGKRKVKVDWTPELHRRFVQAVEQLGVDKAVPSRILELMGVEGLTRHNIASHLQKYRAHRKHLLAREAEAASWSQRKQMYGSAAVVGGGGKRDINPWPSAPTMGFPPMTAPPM
The test is described as follows: protein-binding microarray.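 Note: rank-based score ranging −0.5 to +0.5 with E above 0.45 taken as significant binding.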 Particulars: NbGlk1 is a Golden2-like transcription factor of Nicotiana benthamiana; high values mean tight binding; most listed sequences are background and not binding sites; double strand, one strand shown.
Consider ACCATGTG, for which the binding signal was -0.152 E-score. ATTGAATG showed a binding signal of 0.00382 E-score. As for AAATCCCC, the figure is 0.368 E-score; as for ACCCGGAA, -0.0665 E-score.

In the case of AGAGACTG, the binding signal was -0.0886 E-score.

ACTGTAAT returned a binding signal of 0.312 E-score.

Regarding AGAGCGAA, the binding signal is -0.0692 E-score. Next, ATTTTTAG: 0.235 E-score; ATGAGTAA: 0.163 E-score.

Turning to ATGTGCAC, the binding signal is -0.0286 E-score. AAACTGCG: the binding signal was -0.088 E-score. For the sequence ACCTCAAC, the binding signal is -0.132 E-score. ATTATCTA had a binding signal of 0.201 E-score.

Regarding AGTCAGCA, the binding signal is -0.152 E-score. On to ATGCGCAA, for which the binding signal is 0.173 E-score. With AAGACGAG, the binding signal was -0.0393 E-score. Sequence AGACTGAA registered a binding signal of 0.0441 E-score.

In the case of AACGCAAG, the binding signal was -0.0251 E-score.

Sequence ATTCACAG had a binding signal of 0.167 E-score. For the sequence AGACGCTG, the binding signal was -0.0868 E-score. As to ATCGAACC, the binding signal was found to be 0.00528 E-score. As for ACAATTAG, the figure is 0.131 E-score; as for ATTTGCGG, 0.195 E-score. As for AGTTAAAT, the binding signal was 0.108 E-score. As for AGTAACCC, the figure is -0.117 E-score. As for ATGACAGA, the binding signal is -0.0801 E-score. As for ATATTAAA, the figure is 0.17 E-score; as for CAATGGCA, -0.144 E-score. Next, CACTCACA: -0.0926 E-score; ACCTAGTG: -0.182 E-score; AAACTTAG: -0.0923 E-score. Regarding AGGGTCGG, the binding signal is -0.188 E-score.

ATATAGTG had a binding signal of 0.0491 E-score.

In the case of AGACTAGC, the binding signal was -0.174 E-score.

Regarding ATTGTAGC, the binding signal was -0.0112 E-score. On to CACGAAGG, for which the binding signal was -0.151 E-score.

As for AAGTCTCG, the binding signal was -0.178 E-score.

CACAATCG gave a binding signal of 0.268 E-score. For the sequence CAAATGGC, the binding signal was -0.223 E-score. As to ACTTCTAC, the binding signal is -0.0626 E-score. In the case of AAGATGAT, the binding signal was 0.118 E-score.

Turning to AACGGCGC, the binding signal is -0.0947 E-score.

In the case of ACGCACGT, the binding signal was -0.013 E-score. On to ACAATGTG, for which the binding signal was -0.0911 E-score.

AGTTTTCG: the binding signal was -0.0763 E-score. AGTGGTGC: the binding signal is -0.199 E-score.

With CAATTGCA, the binding signal was found to be 0.0611 E-score.

Turning to ACTATGCC, the binding signal was -0.0104 E-score. As to AATAGAAC, the binding signal was -0.0719 E-score. As for ATGGGGGC, the binding signal is -0.188 E-score. With ACGGTAGC, the binding signal was -0.139 E-score. ACACATTC displayed a binding signal of 0.113 E-score. As to ATCAGCAC, the binding signal turned out to be 0.058 E-score. For AACACTGC, the binding signal was -0.0212 E-score. Turning to ACTTGTTG, the binding signal was -0.0955 E-score.

ATAGAGAT registered a binding signal of 0.276 E-score. In turn, AGCGTAAA displayed a binding signal of 0.112 E-score. As for AAGGCCTT, the figure is -0.0125 E-score; as for ACGAAGCT, -0.164 E-score.

In turn, ACTGAAAA had a binding signal of 0.173 E-score. As to CAATACCG, the binding signal was -0.121 E-score. Regarding CACGAAAC, the binding signal was -0.0202 E-score. ACGTTGGC: the binding signal was -0.254 E-score. As to CAAACAGC, the binding signal is -0.0286 E-score.

Turning to AATCAAGA, the binding signal was found to be 0.308 E-score. Turning to AAATAGTG, the binding signal is -0.0665 E-score. As for ACTGATGG, the figure is -0.0842 E-score. In the case of ATTTGGGC, the binding signal was 0.0874 E-score. As for AGGCATCC, the figure is -0.184 E-score; as for AGTCCTTC, -0.204 E-score. As for AACAGCCC, the binding signal was -0.26 E-score.

On to AGGGAGCG, for which the binding signal was -0.115 E-score. As for ACTGAAGA, the binding signal was 0.00037 E-score. Next, CAAAAACA: -0.0472 E-score; ATCCGTAA: 0.268 E-score. In turn, ATCATAGC displayed a binding signal of 0.176 E-score.

ATAACGGA came in with a binding signal of 0.133 E-score. In the case of AAAGATGG, the binding signal is 0.0109 E-score. ATGTGGAC: the binding signal was -0.272 E-score.

For the sequence ACGGGCCG, the binding signal was -0.291 E-score. For AAGGGAAT, the binding signal stood at 0.259 E-score. Turning to ACCTGATA, the binding signal amounted to 0.0967 E-score. As for ACCCTGTA, the figure is -0.162 E-score; as for AACCCGAC, -0.234 E-score; as for ACTATAGC, -0.124 E-score.

Turning to AGTGTCGA, the binding signal was -0.107 E-score. As for AACACCCT, the binding signal is -0.207 E-score. As to ATCAGTGG, the binding signal was determined as 0.134 E-score. Sequence ACAAAATG returned a binding signal of 0.00095 E-score. On to AGATCCCG, for which the binding signal amounted to 0.32 E-score. As to CACCGTGG, the binding signal was -0.236 E-score. In turn, CAAATTCG gave a binding signal of 0.213 E-score. For ACTAAAAA, the binding signal was 0.0978 E-score. In turn, AATATGGG registered a binding signal of 0.144 E-score. With ACCCATAC, the binding signal is -0.0861 E-score.

Turning to ACACTATG, the binding signal was -0.00488 E-score.

AAGGAACA came in with a binding signal of 0.0128 E-score.

Take ATAAGATG: the binding signal came out at 0.0394 E-score. Take CAATTTGG: the binding signal was found to be 0.00133 E-score. As to ATGCCGCG, the binding signal was -0.0364 E-score. As for CAGAAGAA, the figure is 0.0167 E-score. CACGATCA showed a binding signal of 0.0745 E-score. As for AGGGATGG, the binding signal was -0.314 E-score.

CAGCAAGC: the binding signal was -0.214 E-score.

Consider ACATCCCG, for which the binding signal was -0.00275 E-score. Next, ACTTAAGC: -0.0934 E-score; ACTCAGCA: -0.159 E-score; AATCAGAC: 0.166 E-score. As for ACATACCA, the binding signal was -0.125 E-score. As to AGCAAACG, the binding signal was -0.11 E-score. In the case of AGCCTTAA, the binding signal was -0.225 E-score. Sequence ATAACATC came in with a binding signal of 0.0762 E-score. As for ACACTGCC, the figure is -0.236 E-score; as for AGGGCCAG, -0.121 E-score. Consider ACACTAGA, for which the binding signal came to 0.111 E-score.

Consider CAAGAGTG, for which the binding signal was -0.138 E-score. Regarding ATAGATGG, the binding signal was -0.0288 E-score.

With CACAGGAC, the binding signal was -0.187 E-score. Regarding AGAGCCAA, the binding signal is -0.275 E-score. As to ACTGGAGC, the binding signal was -0.17 E-score. As to ACGCCTCG, the binding signal is -0.168 E-score. With ATGGCGGC, the binding signal was -0.148 E-score. As for ATCCCTAG, the figure is 0.0811 E-score; as for ACAGGGGA, -0.0647 E-score; as for AGACAACG, -0.231 E-score.

Take ACCCCCAC: the binding signal was -0.226 E-score. The sequence CAATTGAC displayed a binding signal of 0.0641 E-score. For the sequence ATATCGTG, the binding signal amounted to 0.348 E-score. As for AGGCCTAT, the figure is -0.248 E-score. Next, AGCTAAAT: 0.00967 E-score. As for ATCAAAGG, the figure is -0.0417 E-score; as for ATCGCCAA, 0.206 E-score.

ATATAGCA returned a binding signal of 0.145 E-score.

Take ACAACCTC: the binding signal is -0.0571 E-score. Consider ACCCGACA, for which the binding signal is -0.248 E-score.

Consider CAACTGAG, for which the binding signal is -0.0505 E-score. The sequence AAACCTTA showed a binding signal of 0.023 E-score.

For the sequence ACGGAGGC, the binding signal is -0.158 E-score. Next, AATTGTTC: 0.132 E-score; ATTTAAAA: 0.188 E-score. AAGTCTCA: the binding signal is -0.0979 E-score. As for ACTCGACG, the binding signal was -0.124 E-score. With ATCTGCTA, the binding signal worked out at 0.331 E-score. In the case of CACAGGCC, the binding signal is -0.219 E-score.

For AAATCGCC, the binding signal is 0.322 E-score. In the case of AATACACT, the binding signal was -0.0515 E-score. As for AACGCCTG, the figure is -0.133 E-score; as for AGCATACT, -0.212 E-score.

With ATCAGCAG, the binding signal came out at 0.141 E-score. For AACGGAGC, the binding signal is -0.216 E-score.

Take ACAAATTG: the binding signal stood at 0.0984 E-score. As to AGAAGCAC, the binding signal is -0.118 E-score. Sequence AACAAACA registered a binding signal of 0.137 E-score. Consider AGTCGGCA, for which the binding signal is -0.0018 E-score. In the case of CAAAGTTG, the binding signal was 0.0247 E-score.

For AAGTGATT, the binding signal worked out at 0.282 E-score. On to CACGTGAC, for which the binding signal was -0.203 E-score. As to AAGTGCGT, the binding signal was -0.0719 E-score. With ACCCCTAG, the binding signal was -0.231 E-score. Take CAGAACCA: the binding signal was -0.119 E-score. Consider ATTATTAG, for which the binding signal is 0.16 E-score. As for AATGCATC, the binding signal was -0.072 E-score.

ATTAACAA showed a binding signal of 0.138 E-score. AAAGAAGG: the binding signal was -0.171 E-score.

Regarding ATCAATTA, the binding signal turned out to be 0.187 E-score. Take ACAGCTAA: the binding signal was -0.137 E-score. For ACGCAGAG, the binding signal is -0.031 E-score. The sequence AGGGATCA gave a binding signal of 0.127 E-score. With AGTGCTTG, the binding signal is -0.155 E-score. Next, AATATTTG: 0.253 E-score. As for ATGACCAT, the binding signal was -0.157 E-score. Next, AAAGCTCG: -0.129 E-score.
